Values joined by “and” are separate entries in the source; they are usually repeats but may differ in a detail not shown here. Equal values may be shown once. Out of some 48,000 compounds screened, about 450 (0.94%) were called active. This list was built around the results that the source calls inconclusive (neither active nor inactive); the mix of calls is not that of the screen. Calls come from the whole dose curve; as a rule, active = well fitted inhibition curve with a large enough effect; inconclusive = small, poorly fitted or top-dose-only effect; inactive = no such curve, though single readings can be large or run the other way. A potency beside an inconclusive call is a rough fit, not a confirmed value.
Test: Primary qHTS for Identification of Small Molecule Inhibitors of Huntingtin Promoter Activity; note: nearly all actives have a fitted effect of over 50% in size
Conditions: HEK293 HTT promoter firefly luciferase reporter (activity 0% = vehicle and -100% = no light), 24 h; series mostly up to 57.5 µM
Procedure, shortened: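 Firefly luciferase readout (Dual-Glo, 10 min RT) after 24 h, 37 °C compound exposure (final up to 57.5 uM) of HEK293 reporter cells cultured 24 h beforehand; PTC124 at 50 uM final as control inhibitor; activity scaled vehicle 0%, zero RLU -100%.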
Potency is the fitted concentration of half-maximal effect; tags give direction and shape of the fitted curve.

With CCS(=O)(=O)N1CCc2cc(C(=O)N3CCN(c4ccccc4OC)CC3)ccc21 as the compound, how does the Potency read?
The Potency was inconclusive: 22.4 µM [inhibitor, partial curve, poor fit].

With Cc1ccc(C(=O)N2CCCCC2)cc1NC(=O)c1nsc2ccccc12 as the compound, how does the Potency read?
Its Potency is inconclusive: 31.6 µM [inhibitor, single point].

With COc1ccc(N2C(=O)CS(=O)(=O)C23C(=O)N(Cc2ccc(F)cc2)c2ccc(C)cc23)cc1 (stereo unspecified) as the compound, how does the Potency read?
Its Potency is inconclusive: 15.8 µM [inhibitor, partial curve, poor fit].

For COc1ccc(CCNC(=O)c2cccc(-n3cnc4cccnc43)c2C)cc1OC, which Potency is on record?
The Potency was inconclusive: 11.2 µM [inhibitor, partial curve, poor fit].

Which Potency does the source give for CC(C)c1nc2ccc(C(=O)NCCCN3CCN(c4cccc(Cl)c4)CC3)cc2o1 here?
Its Potency is inconclusive: 31.6 µM [inhibitor, partial curve, poor fit].

With CCOC(=O)N1CCN(Cc2nc3cc([N+](=O)[O-])ccc3n2C(C)C)CC1 as the compound, how does the Potency read?
The Potency was inconclusive: 17.8 µM [inhibitor, partial curve, poor fit].

With CCOc1ccc(CCNC(=O)c2nc(-c3cccc(F)c3)n3c2CCCCC3)cc1OCC as the compound, how does the Potency read?
The Potency was inconclusive: 14.1 µM [inhibitor, partial curve, poor fit].

Which Potency does the source give for Cc1cccc(N2CCN(C(=O)C3CCCN(S(=O)(=O)c4ccc(Br)s4)C3)CC2)c1C (stereo unspecified) here?
Its Potency is inconclusive: 14.1 µM [inhibitor, partial curve, poor fit].

Which Potency does the source give for CCOC(=O)C1CCC(CN(Cc2ccc(Cl)cc2)S(=O)(=O)c2cc(Cl)cc(Cl)c2)CC1 (stereo unspecified) here?
Its Potency is inconclusive: 10 µM [inhibitor, partial curve, poor fit].

With Cc1ccc2scc(N3CCC(C)CC3)c(=O)c2c1 as the compound, how does the Potency read?
The Potency was “inactive”.

Which Potency does the source give for COc1cccc(NS(=O)(=O)c2ccc3c(c2)[C@H]2C=CC[C@H]2[C@@H](c2ccccc2Cl)N3)c1 here?
The Potency was inconclusive: 12.6 µM [inhibitor, partial curve].

For Cc1[nH]c2ccccc2c1C(c1ccccc1)c1ccc(Cl)s1 (stereo unspecified), which Potency is on record?
The Potency was inconclusive: 39.8 µM [inhibitor, partial curve, poor fit].

With COc1cccc(CNC(=O)Cc2ccc(NC(=O)N3CCSc4ncccc43)cc2)c1OC as the compound, how does the Potency read?
Its Potency is inconclusive: 11.2 µM [inhibitor, partial curve, poor fit].

For CCOc1ccc(CCNC(=O)Cn2c(-c3cccs3)cc3cc(F)ccc32)cc1OCC, which Potency is on record?
The Potency was inconclusive: 25.1 µM [inhibitor, partial curve].

Which Potency does the source give for CCc1cccc(CC)c1NC(=O)Cn1c(=O)c(-c2cc(C)ccc2NC(C)=O)nc2ccccc21 here?
The Potency was “inactive”.

Which Potency does the source give for CCCc1cc(N2CCN(c3ccccc3)CC2)n2cnnc2n1 here?
The Potency was inconclusive: 20 µM [inhibitor, partial curve, poor fit].

Which Potency does the source give for CCc1ccc(CN(Cc2ccco2)c2cnc(S(C)(=O)=O)nc2C(=O)Nc2c(C)cccc2C)cc1 here?
The Potency was inconclusive: 39.8 µM [inhibitor, single point].

Which Potency does the source give for Cc1oc(-c2ccccc2F)nc1CSCC(=O)N1CCN(c2ccccc2)CC1 here?
The Potency was active: 22.4 µM.

With O=C(Nc1ccc2oc(-c3cccnc3)nc2c1)c1ccc(-c2cccc(Cl)c2)o1 as the compound, how does the Potency read?
The Potency was inconclusive: 6.31 µM [inhibitor, full curve, poor fit].

With COc1ccc(S(=O)(=O)c2c(Nc3c(C)cccc3C)sc(C(=O)c3ccc4c(c3)OCO4)c2N)cc1 as the compound, how does the Potency read?
Its Potency is inconclusive: 3.55 µM [inhibitor, full curve].

Which Potency does the source give for Cc1cccc(Nc2ncc(NC(=O)c3cccc(F)c3)c(Nc3cccc(C)c3)n2)c1 here?
Its Potency is inconclusive: 25.1 µM [inhibitor, single point].

Which Potency does the source give for O=C(Cn1c(-c2cccs2)cc2ccccc21)N1CCN(c2ccccc2F)CC1 here?
Its Potency is inconclusive: 39.8 µM [inhibitor, partial curve, poor fit].

For COc1ccc(NC(=O)CSC2=Nc3ccccc3C3=NC(CC(=O)NCc4ccco4)C(=O)N23)cc1 (stereo unspecified), which Potency is on record?
The Potency was inconclusive: 39.8 µM [inhibitor, single point].

For O=C(CSc1nnc(-c2ccncc2)n1-c1ccccc1)Nc1ccc(Cl)c(Cl)c1, which Potency is on record?
The Potency was inconclusive: 35.5 µM [inhibitor, single point].

Which Potency does the source give for CN(C)CC=CC(=O)Nc1cc2c(Nc3ccc(F)c(Cl)c3)ncnc2cc1O[C@H]1CCOC1 here?
The Potency was inconclusive: 7.69 µM [inhibitor, partial curve].

Which Potency does the source give for COc1cc(CCc2cc(NC(=O)c3ccc(N4C[C@@H](C)N[C@@H](C)C4)cc3)n[nH]2)cc(OC)c1 here?
The Potency was “inactive”.

With CCOc1ccc(CCNC(=O)CN2CCN(Cc3ccc(F)cc3Cl)C2=O)cc1OCC as the compound, how does the Potency read?
The Potency was “inactive”.

Which Potency does the source give for CCCOc1ccccc1C(=O)N1CCC(c2nc3ccccc3s2)CC1 here?
The Potency was inconclusive: 31.6 µM [inhibitor, partial curve, poor fit].

For CCN(CC)C(=S)SSC(=S)N(CC)CC, which Potency is on record?
The Potency was inconclusive: 137 nM [inhibitor, full curve] and inconclusive: 22.4 µM [inhibitor, partial curve, poor fit] and inactive.

With Clc1ccc(CCNc2ncnc3c2c(-c2ccccc2)cn3-c2ccccc2)cc1 as the compound, how does the Potency read?
The Potency was inconclusive: 28.2 µM [inhibitor, partial curve, poor fit].

For Cc1cc(OCCCS(C)(=O)=O)cc(C)c1-c1cccc(COc2ccc3c(c2)OC[C@H]3CC(=O)O)c1, which Potency is on record?
The Potency was “inactive”.

With COc1cc(C(=O)Nc2cc(C)ccc2OCc2cc(=O)n3cc(C)sc3n2)cc(OC)c1OC as the compound, how does the Potency read?
The Potency was “inactive”.

For CCOC(=O)c1ccc(NC(=O)c2oc3ccc4c(c3c2C)C(=O)CC(C)(CC)O4)cc1 (stereo unspecified), which Potency is on record?
The Potency was inconclusive: 0.0794 µM [inhibitor, full curve, poor fit].

Which Potency does the source give for CCc1ccccc1NC(=O)c1cc(S(=O)(=O)NCCc2ccc(OC)c(OC)c2)ccc1F here?
Its Potency is inconclusive: 25.1 µM [inhibitor, partial curve, poor fit].

Which Potency does the source give for Cc1nc2c(-c3ccccc3)c(C)nn2c(C)c1CCC(=O)NCc1cccc(Cl)c1 here?
The Potency was “inactive”.

For Cc1nnc(NC(=O)c2nc(S(=O)(=O)Cc3ccccc3)ncc2Cl)s1, which Potency is on record?
Its Potency is inconclusive: 39.8 µM [inhibitor, single point].

— PubChem BioAssay AID1508623 (National Center for Advancing Translational Sciences (NCATS), 2021)
